# Laboratory results published in the supplement of paper PMC11417369.
# The list shows a part of the results.
# Test system: PfAP2-HC AP2 domain (GST-tagged)
# Experiment: gcPBM binding intensity (ln(normalized median fluorescence intensity)); higher = stronger DNA binding
# Method in brief: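 Plasmodium falciparum DNA-binding domains carrying a GST tag were expressed in E. coli and applied for 1 h, at about 25 μg on average, to an Agilent 4 × 180k array. The array held primer-extended double-stranded 36-bp intergenic genomic probes together with negative controls, and binding took place in 1× PBS with 1% milk, 0.2 mg/ml BSA, 0.5% salmon testes DNA and 0.03% Triton X-100. An Alexa488 anti-GST antibody detected bound protein, and the array was scanned at 488 nm. Binding intensity is taken as the highest Masliner-normalised natural-log median intensity across replicate spots of either probe orientation.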
row,Sequence,gcPBM binding intensity (ln)
1,TTATTAACCAAACGCACATGCAAAATATATTATATA [TGCATGCA_site915],9.59
2,AAATAAATAATATGTAAACACACAAAAAATAAAAAT [CACACA_site8307],10.3
3,TTTTTTTTTCGGAAAAGTACAAAACTTTTTTATAAT [XGTACX_site4670],9.42
4,TATATATCAATATGCACACACAAGAAGTAATTATAA [CACACA_site7487],10.5
5,TAAAAAGTATATAAGAGTACACATATTTATAAATAT [XGTACX_site3084],9.73
6,AGACTTTGTACAAACACACACATGAGCACAATATTA [CACACA_site6755],10.3
7,AACAAAATTGAAGGAACACACATACAGATATATATA [CACACA_site4264],10.3
8,TAATAATTAATTAATATAATATTTTTTCATAATTAT [XGTACX_negctrl_site602],9.56
9,ATAGAAAAAATATACACACACTTATTAAATAAAAAT [CACACA_site7540],10.1
10,TTTTTTTTTTTCGGGGGTACTAATATATTATTAATA [XGTACX_site7809],9.82
11,GTTTTTAAGAAAAACACACACTCCTGTTATTTTATA [CACACA_site3696],9.89
12,ATATAATATATATATTGTACATATATTTATAAGCAT [XGTACX_site3726],9.59
13,AATGTGCTCGCTATTACACACTCATTGGGATAAACT [CACACA_site7043],9.72
14,TATATATATATATATTGTACATTTACCAAATTGTGT [XGTACX_site5791],9.62
15,TATATAAATAAATATACACACATATATAAATATACA [CACACA_site2982],9.8
16,TTTTTTTTTTTTTGCACACTTAAATTTGGAGTGTAG [CACACA_site2345],9.83
17,TTTAATAATAATACTAGTACACATTCTTTATTATTT [XGTACX_site2671],9.9
18,TGAATTAAGATTTATTGTACATAATTTATACCATAT [XGTACX_site7034],9.65
19,TAAATTTATAGACACACACACATATAAATAAATATA [CACACA_site6530],10.8
20,AAGATTTTCCTTGATAGTACACTTATGAAAATTTGT [XGTACX_site3047],9.59
21,AATATCTTAGTGGATACACACATATAAATGTGGATT [CACACA_site485],9.65
22,ATATATTACGACTTCTGTACATAATATATAAAAGAA [XGTACX_site2353],9.7
23,TTTTTTTTTTTTTTTTTTTTTTTGTCTTATTTTTTT [GTGCAC_negctrl_site338],9.01

row,Sequence,gcPBM binding intensity (ln)
1,AAAGTAAAAAATCATAGTACACATTTAAATATATAT [XGTACX_site2323],10
2,TAATATATCAAATGAAGTACTCACATATACATAATA [XGTACX_site6051],9.72
3,GGTATATATTTATAATGTACATATTCATATATATAA [XGTACX_site3291],9.4
4,TTTTTTAAATTATGTAGTACGATTCATTTTTTATAA [XGTACX_site1101],9.48
5,CATCATCTTTTAAAGGTGCATAATAATATTGTTAAT,9.46
6,ATGTTCTTTAAAACCACACACCCCCCAACCCCCCTC [CACACA_site2373],9.8
7,GTCTATTATTTTTGAAGTACAAAAATTTTAGTTAAA [XGTACX_site4708],9.5
8,TCGCCCTACAATTTGTTTATATATTAAATAAAATTT [CACACA_negctrl_site883],9.76
9,AATATATTTAATCATACACACATTTATGTACCTATA [CACACA_site1718],9.96
10,TGAAATTCCATAAAATGTACATATTAGTTTAATTCA [XGTACX_site4031],9.44
11,TTACAACATGAAAATGTGCACATATATATATATATA,9.7
12,AAAAATAAATATATATGTACACATATGTATACAATA [XGTACX_site4692],9.72
13,GAAATAAATATAATATATATATATATATATATATGT [TGCATGCA_negctrl_site216],9.6
14,GGTATACACAGACATGCATGTAATTATATATAGGGA [TGCATGCA_site83],10.3
15,TATTATTATTATGGTAGTACATGTAGGTTATTAAAA [XGTACX_site5742],9.69
16,AATTGGGAAGGACATGCATGAGAAATTAATATTGCA [TGCATGCA_site424],9.63
17,ATATTTATAAATTGCACACAAATAATAACATTCTAT [CACACA_site2357],9.8
18,ATATCTACTATACAACTGAGTGTAGAAAAATTAAAC [CACACA_negctrl_site1211],9.76
19,ACTTTGCTCTACAATGCATGCTCATTTAACAAGGCA [TGCATGCA_site676],9.51
20,TATATTAAATGAAACAAACACACATAGCCTTTAAAT [CACACA_site1559],9.91
21,TCAATTTTACTTGTTTGTACATAAAATAATAAGGTT [XGTACX_site3732],9.47
22,AAGAAAAAAAAAATTACACACTGCGGACATACACAA [CACACA_site4838],9.98
23,ATATTTTGTTTTTGTTCTTTTTTTTTCTTTTTTTTT [CACACA_negctrl_site1342],9.93

row,Sequence,gcPBM binding intensity (ln)
1,ATATATATATATATATGTACATATTTTTATTTATAC [XGTACX_site2858],9.67
2,TATGTAATGTTTACAACACACAAATTATAAATACAA [CACACA_site1771],9.73
3,TATTTATATGTATATACATGCACATATATATGAAAC [TGCATGCA_site1005],9.63
4,CTATTTTATATGTGCACACATATACTCAGACAAATA [CACACA_site4761],9.95
5,ACCTATATACTAAATGCACACTTATATATTTATATA [CACACA_site5371],9.88
6,AAAAAAAAAAAAAAATGTACATATATATAAATATAT [XGTACX_site6768],9.53
7,TGTATAAATATATGCACACATATATATATTTATATA [CACACA_site3473],9.63
8,TCAATAAATGAATATGCATGCACGCTCTTTAGAGAT [TGCATGCA_site553],9.66
9,GAGAAAAAAAAAAAAAAACACACGGTACATTCAAAG [CACACA_site1767],9.71
10,TAATTCGCATTTTATACACACATTCGAACCTTTTTT [CACACA_site7549],10.2
11,AAATTAATACATTATTGTACTTTTCATGTGCAGAAA [XGTACX_site8284],9.46
12,CATATTACATTAAATTGTACATATATATATATATAT [XGTACX_site3295],9.76
13,CGGATGAATATATATGCACACATCTTTTGTAAAAAT [CACACA_site3190],9.76
14,AAAAATTAAAAGAAAATACACACCTGTGGGTGCTTA [CACACA_site1988],9.57
15,TTATATAGGCAGATGGTGCATCTATTTATAAGCAAC,9.51
16,TATTTTTTTTGTTAGGTGCATTTACATTTATTTTTA,9.74
17,TGTATGTATTTTCAATGTACATAAAAAAAAAAAAAA [XGTACX_site4397],9.4
18,AAAAAAAAAAGTTCTACACACACAAAAAAATATTTT [CACACA_site8725],10.1
19,ATATGAGAGAATAAAACACACAAAAAAAAAAAAAAA [CACACA_site2865],9.46
20,TAATAATCAAGTTAACGTACAAAATCATCTATAGAA [XGTACX_site5921],9.64
21,GTAGCCTTTCTTTATAAAGGCAAACAAACAAAAAAT [CACACA_negctrl_site1491],9.36
22,TTTTTAAAACATATCACACATATATATATATATATA [CACACA_site5991],9.52
23,TATTTTTATAAAAATCGTACAAGTGATCCAATTTTT [XGTACX_site4402],9.54

row,Sequence,gcPBM binding intensity (ln)
1,CCGTATTCAAAAAGGAGTACACAATTATATGTTATA [XGTACX_site641],9.43
2,TATAATATAATTAAAAGTACTTAAAAAAGAATGAAA [XGTACX_site1157],9.71
3,TGTTTATATAATATTCTACACACCAACAACAAACAT [CACACA_site8087],10.4
4,CGCGCACCCAGACACACACACACACCGATATATATA [CACACA_site8687],10.9
5,AAAAAAAAAAAAAGTACACACTTATAAAATATTATG [CACACA_site4639],9.69
6,TAAATTATCTTTTTATGTACTTATTTTTATTATTTT [XGTACX_site3158],9.73
7,TATTTTCAACATATTTGTACATATTTTATATTTTAA [XGTACX_site101],9.71
8,GTTATACTCATATATACACACATATGTAAATATATA [CACACA_site5764],9.75
9,ATATAAATAATGTTGACACACACAATAATCTTATTA [CACACA_site9197],9.99
10,AAAATATGGATTCATGATATTAAATTTAATTTAATG [XGTACX_negctrl_site214],9.29
11,ATTATATTAGGTAATCAGTTAAATGTTTCCTTTTTA [CACACA_negctrl_site1229],9.53
12,ATACGAAAAAAAAAAAGTACACAAAAATATCTACAT [XGTACX_site2051],9.78
13,TTTATATAATTTTGTGGTACTTATGTGTGTATATTA [XGTACX_site706],10
14,ATTTATTATATATACACACATACATATATATATATA [CACACA_site2159],9.82
15,ATAACAAAATAAAACACACACACAAATGTACTTATA [CACACA_site8768],10.5
16,TGCTTTTATTTCTTCACACATATGTAAAAAAAAGAA [CACACA_site5906],9.33
17,AAAAAATTCTGGTACTGTACACATTTTTTTAAATTT [XGTACX_site6904],9.63
18,TGCATACTAGCCAATTGTACATAATTTTATTTTAAA [XGTACX_site513],9.43
19,ATTATGATTTTATAGAACTGAACATTTACATTAAAT [GTGCAC_negctrl_site192],9.55
20,AAAATAAATCTGAATGGGGTATAATATATCTTTGTT [CACACA_negctrl_site744],9.68
